Where “and” joins values, the source holds several entries; their conditions need not be identical. Equal values may be shown once. Screen size: about 73,000 compounds; about 1,800 (2.5%) were called active. Inconclusive results, whose numbers are uncertain, are shown with a selection of clear calls. Calls come from the whole dose curve; as a rule, active = well fitted activation curve with a large enough effect; inconclusive = small, poorly fitted or top-dose-only effect; inactive = no such curve, though single readings can be large or run the other way. Where the call is inconclusive, the potency comes from a doubtful curve fit.
Assay: qHTS Assay for Agonists of the Thyroid Stimulating Hormone Receptor: Activators of Intracellular cAMP Concentrations in Parental HEK 293; note: nearly all actives have a fitted effect of over 55% in size; for activation: % of control where 0% means no effect
Details: parental HEK293 CNG cAMP sensor, membrane potential fluorescence; activation: at 57.1 µM (top of the series) unless noted
How it was run: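 Parental HEK 293 cells stably expressing a cAMP-gated CNG channel were loaded with membrane potential dye containing 100 uM RO 20-1724 for 60 min. Compound added for 30 min; depolarization read as fluorescence intensity at 590 nm.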
Potency is the fitted concentration of half-maximal effect; tags give direction and shape of the fitted curve.

Compound	Potency	activation
CN1CCN(CCC=C2c3ccccc3Sc3ccc(S(=O)(=O)N(C)C)cc32)CC1	inconclusive: 31.6 µM [activator, single point]	
CCN(CC)c1ccc(-c2nc3cnccc3n2C)cc1		inactive: -4.56%
CC(C)C[C@@H](CC(=O)N[C@@H](CCC(=O)O)CC(=O)O)NC(=O)[C@@H]1CNCC[C@H]1NC(=O)C[C@H](CCCN)NC(=O)C[C@H](Cc1c[nH]c2ccccc12)NC(=O)[C@@H]1CNCC[C@H]1N	inconclusive: 3.16 µM [activator, single point]	
COc1ccc(F)cc1S(=O)(=O)n1cc(C)nc1-c1ccccc1		inactive: 3.77%
Cc1nnc(SCC(=O)n2c3c(c4ccccc42)CCCC3)s1	inconclusive: 15.8 µM [activator, partial curve]	
CC1=C(/C=C/C(C)=C/C=C/C(C)=C/CO)C(C)(C)CCC1	inconclusive: 39.8 µM [activator, single point]	
COCCn1c(SCC#N)nnc1-c1ccccc1	inconclusive: 6.31 µM [activator, single point]	
CCn1c(NC(=O)c2cccs2)nc2ccccc21	active: 15.8 µM	
CCOc1ccc(-c2nc(C#N)c(N3CCN(C)CC3)o2)cc1		inactive: 12.2%
COc1ccc(-c2ccc(NCCC3=CCCCC3)nn2)cc1OC	inconclusive: 12.6 µM [activator, partial curve]	
COc1ccccc1N1CCN(CCN(C(=O)c2ccc(I)cc2)c2ccccn2)CC1	inconclusive: 3.98 µM [activator, single point]	
O=C1CCCC2=C1C(c1ccco1)Nc1ccc3ccccc3c12 (centres undefined)		inactive: 2.11%
COC(=O)[C@H](C)NC(=O)C/C=C\[C@@H](C)[C@H]1C=C[C@H](O)[C@@H](CO)O1		inactive: 5.07% [at 11.4 µM]
COc1ccc(CNC(=O)CN(CC2CCCO2)C(=O)CNS(=O)(=O)c2ccccc2)cc1 (centres undefined)	inconclusive: 6.31 µM [activator, single point]	
O=C1C(=O)N(CCOCCO)C(c2ccccn2)/C1=C(\O)c1ccccc1 (centres undefined)	inconclusive: 0.794 µM [activator, single point]	
COc1ccccc1-n1c(=S)sc2c(=O)n(Cc3ccco3)c(SC)nc21	inconclusive: 3.16 µM [activator, full curve]	
Cc1noc(C)c1COc1ccc(C(=O)OCC(=O)c2ccc3c(c2)OCCO3)cc1	inconclusive: 10 µM [activator, partial curve]	
CCOC(=O)N1CCN(CC(=O)Nc2cc3c(cc2C(C)=O)OCO3)CC1		inactive: 9.14%
CCOC(=O)c1cc2sc(C)cc2n1CC(=O)NCc1ccc(F)cc1	inconclusive: 20 µM [activator, partial curve, poor fit]	
CC(=O)NCCSCCNC(C)=O	inconclusive: 15.8 µM [activator, partial curve]	
COC(=O)C1=CNC=C(C(=O)OC)C1c1ccc(Cl)cc1		inactive: 6.64%
Cc1sc(NC(=O)CSc2nnc(COc3ccc(Cl)cc3)n2C)c(C#N)c1C	inconclusive: 39.8 µM [activator, single point]	
C[C@@]1(C(NC(=O)Cc2ccccc2)c2ccc(-c3ccccc3)cc2)C[C@H]1C1CCCCC1 (some centres undefined)		inactive: 2.86%

Compound	Potency	activation
COc1cc(-c2nnc(-c3cccnc3)o2)cc(OC)c1OC		inactive: -6.44%
COc1ccc(C)cc1NC(=O)CSc1nnc(-c2ccc(Br)cc2)o1	inconclusive: 25.1 µM [activator, single point]	
COc1ccc2cc([C@H](C)C(=O)O)ccc2c1	inconclusive: 20 µM [activator, partial curve] and inconclusive: 794 nM [activator, full curve, poor fit]	
COc1cccc(C(=O)N(Cc2nc(-c3cccc(C)c3)no2)C(C)C)c1OC	inconclusive: 25.1 µM [activator, single point]	
NC(=O)CN1CCN(C(=O)NC2CCCCC2)CC1	active: 25.1 µM	
Cc1noc(C)c1COC(=O)c1ccccc1Oc1ccccc1	active: 31.6 µM	
Cc1ccc(S(=O)(=O)N2CCC(C(=O)N3CCN(Cc4ccccc4)CC3)CC2)cc1	inconclusive: 5.01 µM [activator, single point]	
CCn1cnc2sc(-c3ccccc3)cc2c1=O		inactive: 6.14%
CCCn1c(C)cc(=O)c2cc(NC(=O)c3cnccn3)ccc21	inconclusive: 39.8 µM [activator, single point]	
N#Cc1cccc(-c2cc(NCc3ccccc3)ncn2)c1		inactive: 25.1%
O=S(=O)(c1ccccc1)N1CCN(C2CCN(Cc3ccccc3)CC2)CC1		inactive: 22.8%
Cc1cc(C)nc(N(C#N)CC(=O)Nc2ccccc2)n1	inconclusive: 39.8 µM [activator, single point]	
CCN(CC)CCCNc1nc2ccccc2[nH]1	inconclusive: 25.1 µM [activator, single point]	
COc1cccc2c(=O)cc(C)n(CC(=O)Nc3ccc(C)c(C)c3)c12	inconclusive: 20 µM [activator, partial curve]	
O=C(CN1CCOCC1)NCc1ccccc1		inactive: 7.25%
Cc1ccc(Cn2nnc3c(=O)n(CC(=O)N4CCCc5ccccc54)cnc32)cc1	inconclusive: 39.8 µM [activator, single point]	
COc1nnc(-c2ccc(N3CCOCC3)c(NC(C)=O)c2)c2ccccc12		inactive: 1.5%
COc1cccc(-n2nnc3c(=O)n(Cc4ccc(Cl)cc4)cnc32)c1	inconclusive: 7.94 µM [activator, partial curve]	
CCOC(=O)c1c(C)[nH]c(C(=O)Nc2ccc3c(c2)OCO3)c1C		inactive: -6.12%
CC(=O)c1cccc(N(CC(=O)N2CCOCC2)S(C)(=O)=O)c1	inconclusive: 6.31 µM [activator, single point]	
Cc1ccc(-n2nnnc2SCc2nnc(-c3ccccc3Br)o2)c(C)c1	inconclusive: 39.8 µM [activator, single point]	
OCC1OC(C#Cc2ccccc2)C=CC1O (centres undefined)		inactive: 6.07% [at 11.4 µM] and inactive: 8.39% [at 11.4 µM] and inactive: -3.81% [at 11.4 µM]
CCN(CC)CC#CCOC(=O)[C@@](O)(c1ccccc1)C1CCCCC1	inactive	

Compound	Potency	activation
COc1ccc(OC)c(C2SCCN2S(=O)(=O)c2cccc(C(F)(F)F)c2)c1 (centres undefined)	inconclusive: 12.6 µM [activator, partial curve, poor fit]	
O=C(c1csnn1)N1CCC[C@@]2(CCN(c3cccc(-c4ccccc4)c3)C2)C1		inactive: 3.98%
O=C(c1cc2ccccc2oc1=O)N1CCN(Cc2ccc3c(c2)OCO3)CC1		inactive: 5.92%
COc1cc(-c2nnc3sc(Cc4ccc(Cl)cc4)nn23)cc(OC)c1OC	inconclusive: 31.6 µM [activator, single point]	
Fc1cnc(N2CCN(c3ccccc3)CC2)nc1N1CCN(c2ccccc2)CC1	inconclusive: 12.6 µM [activator, partial curve]	
Nc1ccn([C@H]2O[C@H](CO)[C@@H]3[O][Sn]([c]4ccccc4)([c]4ccccc4)[O][C@H]32)c(=O)n1		inactive: -2.52% [at 11.4 µM]
CCn1c(=O)cc(OCC(=O)NCC2CCCO2)c2ccccc21 (centres undefined)	inconclusive: 25.1 µM [activator, single point]	
Cc1ncoc1C(=O)Nc1ccccc1-c1ccccc1	inconclusive: 5.01 µM [activator, single point]	
CC1CCC(C(C)C)C(OC(=O)COC(=O)c2cccn2C)C1 (centres undefined)	inconclusive: 6.31 µM [activator, partial curve]	
CS(=O)(=O)N1CCC2(CCCN(c3ccccn3)C2)CC1	inconclusive: 0.794 µM [activator, full curve, poor fit]	
COC(=O)[C@@]1(Cc2ccc(F)cc2)[C@H]2c3cc(C(=O)N(C)C)n(Cc4ccc(OC(F)(F)F)cc4)c3C[C@H]2CN1C(=O)c1ccccc1	inconclusive: 1.26 µM [activator, full curve]	
CC(=O)O[C@H]1C(=O)[C@]2(C)[C@H]([C@H](OC(=O)c3ccccc3)[C@@]3(O)C[C@H](OC(=O)[C@@H](O)[C@@H](NC(=O)c4ccccc4)c4ccccc4)C(C)=C1C3(C)C)[C@]1(OC(C)=O)CO[C@@H]1C[C@@H]2O		inactive: 1.02%
CCOC(=O)c1oc2ccccc2c1NC(=O)c1ccccc1OC	inconclusive: 15.8 µM [activator, single point]	
CCCCc1ccc(CC(=O)O)cc1		inactive: 21.9%
N#Cc1nc(COc2ccc(Cl)cc2)oc1N1CCCC1	active: 15.8 µM	
Cc1cnc(CNc2nc(-c3ccc(N(C)C)cc3)nc3ccccc23)cn1		inactive: -58%
Cc1ccc(S(=O)(=O)n2c3ccccc3c3nnc(C(=O)c4ccccc4)nc32)cc1		inactive: -10.4% [at 11.4 µM]
Cc1cc2n(n1)C(c1sccc1C)Nc1c(C)cccc1-2 (centres undefined)	inconclusive: 5.01 µM [activator, single point]	
O=C(Nc1sc2c(c1C(=O)NCC1CCCO1)CCCC2)c1cccs1 (centres undefined)	inconclusive: 2 µM [activator, partial curve]	
CC1CCN(CC[S-])CC1.O.O.[Cl][Pt]		inactive: -1.97% [at 11.4 µM]
Cc1c(C(N)=O)sc(N)c1C(=O)OC(C)C		inactive: 27.6%
Cn1c(SCC(=O)N2CCCC2)nc2ccccc2c1=O	inconclusive: 39.8 µM [activator, single point]	
CCCC(c1nnnn1C(C)(C)CC)N(Cc1ccco1)Cc1cc2ccc(OC)cc2[nH]c1=O (centres undefined)	inconclusive: 12.6 µM [activator, partial curve, poor fit]	

From PubChem BioAssay AID938 (National Center for Advancing Translational Sciences (NCATS), 2007)
